pIC50: −log10 of the molar value.
What follows are compounds tested against human Cav2.2 (Homo sapiens, UniProt Q00975) (assay: In vitro assessment of calcium channel activity using FLIPR (Ca2+ influx in IMR32 cells)). Conditions: IMR32 cells endogenously expressing human Cav2.2; 60 minute pre-incubation; 2 μM nifedipine; depolarized with 80 mM KCl; average of at least two runs unless marked (*).
Format: cell-based

Compound | pIC50
O=C(C(NCC(F)F)c1cccc(C(F)(F)F)c1)N1CCN2C[C@H](Oc3cnc(C4CC4)cn3)C[C@H]2C1 (stereo partly drawn) [Example 202, 1-[(7R,8aS)-7-[(5-cyclopropylpyrazin-2-yl)oxy]hexahydropyrrolo[1,2-a]-pyrazin-2(1H)-yl]-2-[(2,2-difluoroethyl)amino]-2-[3-(trifluoromethyl)phenyl]ethanone] | 5.98
O=C(C(c1cccc(C(F)(F)F)c1)N1CCC(F)(F)C1)N1CCN2C[C@H](Oc3cnc(C4CC4)cn3)C[C@H]2C1 (stereo partly drawn) [Example 203, 1-[(7R,8aS)-7-[(5-cyclopropylpyrazin-2-yl)oxy]hexahydropyrrolo[1,2-a]-pyrazin-2(1H)-yl]-2-(3,3-difluoropyrrolidin-1-yl)-2-[3-(trifluoromethyl)phenyl]ethanone] | 6.17
O=C(C(NCCF)c1cccc(C(F)(F)F)c1)N1CCN2C[C@H](Oc3cnc(C4CC4)cn3)C[C@H]2C1 (stereo partly drawn) [Example 204, 1-[(7R,8aS)-7-[(5-cyclopropylpyrazin-2-yl)oxy]hexahydropyrrolo[1,2-a]-pyrazin-2(1H)-yl]-2-[(2-fluoroethyl)amino]-2-[3-(trifluoromethyl)phenyl]ethanone] | 5.79
O=C(c1cccc(C(F)(F)F)c1)N1CCN2C(=O)C(Oc3cnc(C4CC4)cn3)CC2C1 (centres unmarked) [Example 205, 7-[(5-cyclopropylpyrazin-2-yl)oxy]-2-[3-(trifluoromethyl)benzoyl]-hexahydropyrrolo[1,2-a]pyrazin-6(2H)-one] | 5.38
NC(C(=O)N1CCN2C[C@H](Oc3cnc(C4CC4)cn3)C[C@H]2C1)c1ccc(C(F)(F)F)cc1 (stereo partly drawn) [Example 206, 2-amino-1-[(7R,8aS)-7-[(5-cyclopropylpyrazin-2-yl)oxy]hexahydro-pyrrolo[1,2-a]pyrazin-2(1H)-yl]-2-[4-(trifluoromethyl)phenyl]ethanone] | 5.91
O=C(C(NC(=O)C(F)(F)F)c1ccc(C(F)(F)F)cc1)N1CCN2C[C@H](Oc3cnc(C4CC4)cn3)C[C@H]2C1 (stereo partly drawn) [Example 207, N-{2-[(7R,8aS)-7-[(5-cyclopropylpyrazin-2-yl)oxy]hexahydropyrrolo[1,2-a]pyrazin-2(1H)-yl]-2-oxo-1-[4-(trifluoromethyl)phenyl]ethyl}-2,2,2-trifluoroacetamide] | 6.00
O=C(NC(C(=O)N1CCN2C[C@H](Oc3cnc(C4CC4)cn3)C[C@H]2C1)c1cccc(C(F)(F)F)c1)C(F)F (stereo partly drawn) [Example 208, N-{2-[(7R,8aS)-7-[(5-cyclopropylpyrazin-2-yl)oxy]hexahydropyrrolo[1,2-a]pyrazin-2(1H)-yl]-2-oxo-1-[3-(trifluoromethyl)phenyl]ethyl}-2,2-difluoroacetamide] | 5.56
O=C(CC(F)(F)F)NC(C(=O)N1CCN2C[C@H](Oc3cnc(C4CC4)cn3)C[C@H]2C1)c1cccc(C(F)(F)F)c1 (stereo partly drawn) [Example 209, N-{2-[(7R,8aS)-7-[(5-cyclopropylpyrazin-2-yl)oxy]hexahydropyrrolo[1,2-a]pyrazin-2(1H)-yl]-2-oxo-1-[3-(trifluoromethyl)phenyl]ethyl}-3,3,3-trifluoropropanamide] | 5.73
CC(=O)NC(C(=O)N1CCN2C[C@H](Oc3cnc(C4CC4)cn3)C[C@H]2C1)c1cccc(C(F)(F)F)c1 (stereo partly drawn) [Example 210, N-{2-[(7R,8aS)-7-[(5-cyclopropylpyrazin-2-yl)oxy]hexahydropyrrolo[1,2-a]pyrazin-2(1H)-yl]-2-oxo-1-[3-(trifluoromethyl)phenyl]ethyl}acetamide] | 5.32
O=C([C@@H](NC(=O)C(F)(F)F)c1cccc(C(F)(F)F)c1)N1CCN2C[C@H](Oc3cnc(C4CC4)cn3)C[C@H]2C1 [Example 211, N-{(1S)-2-[(7R,8aS)-7-[(5-cyclopropylpyrazin-2-yl)oxy]hexahydro-pyrrolo[1,2-a]pyrazin-2(1H)-yl]-2-oxo-1-[3-(trifluoromethyl)phenyl]ethyl}-2,2,2-trifluoroacetamide] | 5.64
O=C([C@H](NC(=O)C(F)(F)F)c1cccc(C(F)(F)F)c1)N1CCN2C[C@H](Oc3cnc(C4CC4)cn3)C[C@H]2C1 [Example 212, N-{(1R)-2-[(7R,8aS)-7-[(5-cyclopropylpyrazin-2-yl)oxy]hexahydropyrrolo-[1,2-a]pyrazin-2(1H)-yl]-2-oxo-1-[3-(trifluoromethyl)phenyl]ethyl}-2,2,2-trifluoro-acetamide] | 5.93

Source: patent US8669255B2, “Substituted octahydropyrrolo[1,2-a]pyrazines as calcium channel blockers” (AbbVie Inc., priority 2011, dated 2014)
